± gives the standard deviation of the averaged measurements. The list shows a part of the results.
System: PfAP2-G AP2 domain (GST-tagged)
Assay: gcPBM binding intensity (ln(normalized median fluorescence intensity)); higher = stronger DNA binding
Outline: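 GST-tagged P. falciparum DNA-binding domains produced in E. coli were incubated for 1 h on an Agilent 4 × 180k array of primer-extended double-stranded 36-bp intergenic genomic probes with negative controls. Binding intensity is the highest Masliner-normalised natural-log median intensity across replicate spots of either probe orientation, with bound protein detected by Alexa488 anti-GST antibody at 488 nm.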

Sequence	gcPBM binding intensity (ln)
AAAAAAAAAAGACACACACACAATAGTATATAAATC [CACACA_site6579]	10.11 ± 0.057
AAAAAAAAAAAAAATACACACATATATATATATATA [CACACA_site85]	10.1 ± 0.42
CTTTTTCCTTTATATTGTACATAATTAAAGATAATA [XGTACX_site7014]	11.1 ± 0.7
TAAATTTATATATAGGTGCGCAATTTGATAATAGTT [GTGCAC_site9783]	10.3 ± 0.25
TTTTTATTTTTTCAAGTGCATATTTTTGGCTTCTTA	9.78 ± 0.11
TATATATATATATTACGTTTTAAATATACTAATCTT [CACACA_negctrl_site32]	9.87 ± 0.33
AATGTCATCATATTCATATATATTTATTTCTTTTTG [GTGCAC_negctrl_site500]	9.69 ± 0.23
TTTTTTTATAAATTCACACAAAATATAATATTAAAA [CACACA_site4766]	9.82 ± 0.11
CTATATATTTTTCATTGTACACAAATTAAAGAAAAA [XGTACX_site8385]	11.5 ± 1.1
ATATAATCCTTTCAAACACACAAAATATAATTAATA [CACACA_site1829]	9.945 ± 0.007
ATGATGGAATATTCTACACACAATTAATAAACAAAC [CACACA_site1045]	10.1 ± 0.13
TAAAAAAAAAAGTATACACACTTCTTAATGTCAACA [CACACA_site4818]	10.1 ± 0.13
TGTCCAATTTATTGTGCACACCTCAAAAGTGGGTAA [CACACA_site3826]	10.6 ± 0.37
GGTTATAACCCACATGCACACGTAAATAAATATTAT [CACACA_site5992]	10.3 ± 0.23
ATAAATAATAAGGTTACAACAAACACACAAAGGAAT [XGTACX_negctrl_site611]	10.22 ± 0.099
TAATAAATAAAAACATGTACATATATACATATATGT [XGTACX_site485]	11.4 ± 0.81
TACCTATATACATACACACACATATAACCAATGTAG [CACACA_site7096]	10.3 ± 0.18
AGAAGATTAAAAATTGCACACAAAAATATATTTTCT [CACACA_site8359]	10.03 ± 0.028
TTTCTATAATATATATGTACATATATAATATGTCGT [XGTACX_site3676]	11.2 ± 0.6

Sequence	gcPBM binding intensity (ln)
AGATAAAATAAATACACACACATAAATACGTACAAA [CACACA_site4739]	11.7 ± 0.74
TGATAATAAGCATACACACACACACTAAAAAAAAAA [CACACA_site6478]	10.3 ± 0.43
ATGATTATACAAAATATACACACGTGGACACAAATA [CACACA_site8304]	11.4 ± 0.66
GATATATAGGTATTTACACACAATGTGAGATCTATA [CACACA_site7575]	10.05 ± 0.092
AAAGACTTTTTATGAGCACACACATATATTATGGAG [CACACA_site8254]	10.16 ± 0.049
TTTTCAAAATGTTGTACACACAAAAAAAAAAAAAAA [CACACA_site1550]	11.5 ± 1
GATGATACACAGGTGTTGCACTTAAATGCAGTTCTT [GTGCAC_site9627]	10.17 ± 0.071
ATTAAAATAGAAAAAAAAAAAAAAAAAAAAAAAAAA [CACACA_negctrl_site1117]	9.51 ± 0.071
TATGGGGAACTATAATGTACGTATTCCTCATATATA [XGTACX_site338]	11.4 ± 0.95
TATTTTTTAAGTGAACATTTGTTATTATATTCTTAT [GTGCAC_negctrl_site172]	9.935 ± 0.007
TATATCTGTATCATTACACACATGTATACTTATTTG [CACACA_site6134]	10.3 ± 0.24
TTGATATACTATGACACATGCAAATAAAACATTATA [TGCATGCA_site535]	10.12 ± 0.099
TAATCATTTTTAAATTGTACAATTTATATAATAAGT [XGTACX_site6081]	10.8 ± 0.4
TTGTATTGTATATGCACACATAGAACACTTTTTTTT [CACACA_site4133]	10.2 ± 0.35
TAAATTTTGTTTAGCACACACACATACATACATACA [CACACA_site3155]	10.6 ± 0.26
ATATATAAATATATATGTACACACATATACATGTTG [XGTACX_site6653]	11.3 ± 0.66
AATTATTCTATATATTGTACATGTTTGTTTTTTTTT [XGTACX_site3130]	10.9 ± 0.42
TGTTTAATCACATGTTTGCACTTTCCTTTTGTAAAT [GTGCAC_site9893]	10.2 ± 0.11
TCTTAAAATCGGAAATGAAATAAAGTTTACAATATG [TGCATGCA_negctrl_site553]	9.87 ± 0.071

Sequence	gcPBM binding intensity (ln)
TGATTCTGTCATGGTGCACACCAGAACCATTATAAA [CACACA_site1965]	10.5 ± 0.46
AATGAACACCTAAAATGTACGTACAAATATATTTTA [XGTACX_site7067]	11.6 ± 0.88
AATCTGATCTTTTAAAGTACACAAAAAAAAAAAAAA [XGTACX_site115]	11.4 ± 1.1
AGGTTATAAATAAATACACACATACAAAAATATGAC [CACACA_site4773]	10.04 ± 0.064
AAAAAAAAAAAAAAAAGTACGTATCAAAGCATCAAA [XGTACX_site880]	11.3 ± 0.86
CATATATATATATGTACACACATTAATAAAAAAAAA [CACACA_site3230]	11.4 ± 0.86
GTTTAACTGTTTTATACACACAATGTATACAATAAA [CACACA_site2959]	10.2 ± 0.28
ATAACCTAATAATACACACACATGAATATATAGAAT [CACACA_site963]	9.905 ± 0.007
TTTAAAATTTTTTTTTTTTTTTTTTTTTTTTTTTAT [TGCATGCA_negctrl_site213]	9.24 ± 0.19
ATATAAATATGTTCTGCACACAAATAAGTGTTTGAA [CACACA_site9291]	10.1 ± 0.18
ATGTTTAATTTTTTTTTGTCCCTATAGAAGTGTCAA [CACACA_negctrl_site1103]	10.5 ± 0.35
AATGAATAAATAAACACACACACATATATAAATATG [CACACA_site6160]	10.05 ± 0.014
AAAACAAACAGACACACACACATATATATATATATA [CACACA_site3655]	10.2 ± 0.59
TTTGAGTGCACATACACACAGACATACATTTAAATA [CACACA_site3403]	10.6 ± 0.56
TATTTATTAATATGTACACACATCAACCATATTAAC [CACACA_site7001]	11.5 ± 0.93
TAATATATATTATTATGTACATATATTGATTCCTTG [XGTACX_site6830]	11.2 ± 0.65
TTGTTTTTATAAATATTATTACAATGAAAAAAAAAA [TGCATGCA_negctrl_site185]	9.82 ± 0.14
CCAAAATACATTAAACGTACATGTCCTAATAAGATA [XGTACX_site21]	11.3 ± 0.98

From the supplement of paper PMC11417369
